# Measured values taken from PMC7819943, “Rice protein-binding microarrays: a tool to detect cis-acting elements near promoter regions in rice”.
# The other results are listed elsewhere or left out.
# Molecular target: T1, OsWOX13 (Oryza sativa, UniProt Q5QMM3 1-267)
# T1 sequence: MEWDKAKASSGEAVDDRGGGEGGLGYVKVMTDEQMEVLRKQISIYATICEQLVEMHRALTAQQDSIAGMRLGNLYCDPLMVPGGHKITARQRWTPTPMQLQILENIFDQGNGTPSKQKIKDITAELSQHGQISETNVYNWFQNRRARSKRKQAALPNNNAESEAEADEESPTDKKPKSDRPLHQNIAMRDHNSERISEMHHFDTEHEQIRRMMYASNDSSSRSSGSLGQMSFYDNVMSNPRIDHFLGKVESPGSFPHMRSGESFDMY
# Assay: protein-binding microarray (RPBM); PBS, 2% BSA, 51.3 ng/ul salmon testes DNA, 50 uM zinc acetate, 200 nM TF, 25 C, 1 h; high values mean tight binding
# Conditions: protein: recombinant; tags: N-terminal polyhistidine and DsRed monomer fusion (pET32a); label: CyDye5-dUTP incorporated in the synthesized complementary strand; 3' TTTTT single-stranded linker to array surface; dsDNA, one strand shown
# Summary of the method: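 Transcription factors were each fused at the N-terminus to a polyhistidine tag plus DsRed and expressed in E. coli BL21-CodonPlus before Ni–NTA purification. Binding to a double-stranded custom Agilent array was carried out with 200 nM protein at 25 °C for 1 h in PBS, 2% BSA, salmon testes DNA and 50 µM zinc acetate. The binding signal is per-feature fluorescence intensity, in arbitrary units, on an Axon 4000B scanner.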
row,Sequence,binding signal
1,ATTTGCTAATGACGGATTAATTAGATTTAATAAATTCATCCGGAGTCACCTAGTGCAG,39700 fluorescence intensity (a.u.)
2,AAATGATTTGCTAAGCAGTTATTCCAGAGTCTTAGTTAAGCGGAGTCACCTAGTGCAG,22800 fluorescence intensity (a.u.)
3,AATACAAATTAGTATATTTATTCACTAACTTATCTAGACACGGAGTCACCTAGTGCAG,19200 fluorescence intensity (a.u.)
4,GCCTAATTACGCCACGATTTAACAATACAGTGCTACAGTACGGAGTCACCTAGTGCAG,30200 fluorescence intensity (a.u.)
5,TCCGAATATATATTAGTCAATTATACTATATTATCCTTCCCGGAGTCACCTAGTGCAG,4970 fluorescence intensity (a.u.)
6,AAAGATTCCTAATTTAGATAACGTGTTTACACCACGACGGCGGAGTCACCTAGTGCAG,4840 fluorescence intensity (a.u.)
7,ATAATAATTAATATTTCATTAATTATATGCTAACGAGTTTCGGAGTCACCTAGTGCAG,43400 fluorescence intensity (a.u.)
8,GCGAGATTGGGGAGGACATGCTCACGGAGATTCTGGTGAGCGGAGTCACCTAGTGCAG,4190 fluorescence intensity (a.u.)
9,CGAATAGATGAATAGTAATGACATTTATCTAAAATGGCACCGGAGTCACCTAGTGCAG,7230 fluorescence intensity (a.u.)
10,AACAAATTATAGATTCCGCCTATAAACTGTGAGATAAATTCGGAGTCACCTAGTGCAG,4770 fluorescence intensity (a.u.)
11,GGAAAACAAATACACATAATTACGGCATAAACACACAGATCGGAGTCACCTAGTGCAG,3970 fluorescence intensity (a.u.)
12,TCATGATTTGAGACCTCCCGGCCACTTCAGGACGGGCATCCGGAGTCACCTAGTGCAG,10600 fluorescence intensity (a.u.)
13,CGTAAATAATGATTCACAACTTACCAAAATCTATTTAACTCGGAGTCACCTAGTGCAG,4400 fluorescence intensity (a.u.)
14,CGTTAATAAGCACATGATTAAAGATGCCTAGGGTAATGAGCGGAGTCACCTAGTGCAG,17800 fluorescence intensity (a.u.)
15,ATAAATTTATTAAACATAATTAATTTATCATTAACAAGCACGGAGTCACCTAGTGCAG,33400 fluorescence intensity (a.u.)
16,GGTTAATTCCTATCTTCTGATTATATAATTTGCTGATCGTCGGAGTCACCTAGTGCAG,35500 fluorescence intensity (a.u.)
17,CTTGGGATTAATTAAGTAATTCCTCCGTTTCATATTATAACGGAGTCACCTAGTGCAG,5010 fluorescence intensity (a.u.)
18,TCGGATTGAGGTCTGAACTGGCAGATTCGGAGTTAAACCACGGAGTCACCTAGTGCAG,3410 fluorescence intensity (a.u.)
19,GCTCTGGTGTAATTGAGATCTTGCAGCACACGACTATCGTCGGAGTCACCTAGTGCAG,4510 fluorescence intensity (a.u.)
20,TCTTTACTAATTAATTCTCCCTCCATTGGCTCATCACTGACGGAGTCACCTAGTGCAG,8620 fluorescence intensity (a.u.)
21,ACTAATAGATACGAGTAGGAAGTGGTGCTAGGAGAAGTTACGGAGTCACCTAGTGCAG,4070 fluorescence intensity (a.u.)

row,Sequence,binding signal
1,GCTAAAATTATGTCACTGATATACTTATACGTGGATCGTACGGAGTCACCTAGTGCAG,19500 fluorescence intensity (a.u.)
2,GAAGGTGTGATTATGGGATGTAGACTCTAGCCTGTTCCGCCGGAGTCACCTAGTGCAG,6640 fluorescence intensity (a.u.)
3,TAATAATTGGATAAATTATTTTGTTCCTGTTTTCTGAAATCGGAGTCACCTAGTGCAG,45400 fluorescence intensity (a.u.)
4,AACTTACTGATTGCATGAAGATTTAAAGGGTTGAATCAGTCGGAGTCACCTAGTGCAG,24400 fluorescence intensity (a.u.)
5,GACTTATAATTTTGGTGATTTCTCACTATTATCGCCTAGTCGGAGTCACCTAGTGCAG,16100 fluorescence intensity (a.u.)
6,GCCCAGCCAAATTTCCCTTGACACGCACCTAAATTAGGCGCGGAGTCACCTAGTGCAG,4050 fluorescence intensity (a.u.)
7,AAACCAATCAAGGGCTTGTTTAGGGAAGTTTCTAGCTACACGGAGTCACCTAGTGCAG,27200 fluorescence intensity (a.u.)
8,TACTGGTTTATTTTACCAATCAATCAATTGTTCTCAAGCTCGGAGTCACCTAGTGCAG,17300 fluorescence intensity (a.u.)
9,ACAATTGAATGAACAGAAAACTGTGAAAATTATGGGACTACGGAGTCACCTAGTGCAG,8480 fluorescence intensity (a.u.)
10,ATCTTTTGATAAGTATAATTATTTTCTAGTTAATCACACTCGGAGTCACCTAGTGCAG,4780 fluorescence intensity (a.u.)
11,ATAAACAATTAATATAACACATCGTACATTCATATTCCCTCGGAGTCACCTAGTGCAG,4680 fluorescence intensity (a.u.)
12,GTGTGTAATTGTTGCGTACGTCAATGTGGCAGATGAGAGGCGGAGTCACCTAGTGCAG,7360 fluorescence intensity (a.u.)
13,AAATATGATTTTCTCCTGATATTTCACCATCCGTACCGCACGGAGTCACCTAGTGCAG,13900 fluorescence intensity (a.u.)
14,AGAGTAATTATGGTTAAAAGATTTGTCGATGTTACAGGGCCGGAGTCACCTAGTGCAG,29100 fluorescence intensity (a.u.)
15,GCTGTTTAAATTGCTGAAAATTCTTTTGGGTGCCAGAGTTCGGAGTCACCTAGTGCAG,7880 fluorescence intensity (a.u.)
16,TTCTGTAATTAGTTTATTTTATTAGTACCTGAACACCCCACGGAGTCACCTAGTGCAG,19300 fluorescence intensity (a.u.)
17,ACCACTTGATTGGCATGCGACAAACGGGTAGACATCCATCCGGAGTCACCTAGTGCAG,49000 fluorescence intensity (a.u.)
18,CTTTATTTACTACCTCCGTGATTTTGATTCTGCCCATGCACGGAGTCACCTAGTGCAG,3910 fluorescence intensity (a.u.)
19,TTTAATCATGATAGAGTTGCTCGAGCAAATGTGGCACACGCGGAGTCACCTAGTGCAG,3430 fluorescence intensity (a.u.)
20,TTAGATATATTGACACATATTTAAAGTATTAAACGTAGTCCGGAGTCACCTAGTGCAG,9980 fluorescence intensity (a.u.)
21,ATCCATTAGCACATGATTAATTAAGTATCTGCTATTCTTTCGGAGTCACCTAGTGCAG,17400 fluorescence intensity (a.u.)
